This is one part of the list. The full chains were built here from the parent and the listed change. Inactive controls read about 0.05.
B1: TEV protease; numbered along this chain (parent)
chain: MGESLFKGPRDYNPISSSICHLTNESDGHTTSLYGIGFGPFIITNKHLFRRNNGTLVVQSLHGVFKVKDTTTLQQHLVDGRDMIIIRMPKDFPPFPQKLKFREPQREERICLVTTNFQTKSMSSMVSDTSCTFPSGDGIFWKHWIQTKDGQCGSPLVSTRDGFIVGIHSASNFTNTNNYFTSVPKNFMELLTNQEAQQWVSGWRLNADSVLWGGHKVFMVKPEEPFQPVKEATQL

Variants of: B1
Experiment: raw area under fraction-flipped curve 0-4 h after induction (AUC4h, not background-subtracted), DNA-recorder readout of cleavage of the substrate (dimensionless); higher = more cleavage of the substrate by the protease variant
Conditions: temperature: 34 °C; time window: 0-4 h after rhamnose induction
Method: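 In vivo DNA recorder in E. coli TOP10(DE3) ΔrhaA at 34 °C. Each TEVp single-site mutant (parent TEVp 0) is paired with a single-site variant of the 7-mer TEVs (canonical ENLYFQ|S). The substrate sits between flexible linkers in a Bxb1-sfGFP-TEVs-SsrA fusion, so cleavage stabilises Bxb1 and speeds flipping of a recombination array, read by NGS. The value is the raw area under the fraction-flipped curve over 0-4 h after rhamnose induction (AUC4h), with ≥20 reads per time point. It is not background-subtracted; inactive controls average about 0.047.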
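Note: Bxb1 expression induced with 0.2% (w/v) L-rhamnose at OD600 near 0.5, cultures sampled hourly, flipped fraction per protease–substrate barcode pair counted by paired-end Illumina sequencing.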

Variant	area with substrate ECLYFQS	area with substrate EDLYFQS	area with substrate EELYFQS	area with substrate EFLYFQS	area with substrate EHLYFQS	area with substrate EILYFQS	area with substrate EMLYFQS	area with substrate EPLYFQS	area with substrate EQLYFQS	area with substrate ERLYFQS	area with substrate ESLYFQS	area with substrate ETLYFQS	area with substrate EVLYFQS	area with substrate EWLYFQS	area with substrate EYLYFQS	area with substrate EKLYFQS	area with substrate ELLYFQS	area with substrate EGLYFQS
P89Q	0.0799	0.0593	0.0864	0.0974	0.0878	0.0678	0.0769	0.127	0.0646	0.0705	0.0827	0.101	0.0761	0.0936	0.0899			
I86T	0.0714		0.078			0.0662	0.0717	0.0746		0.0684	0.0749		0.0622	0.0819		0.0611		
I86S	0.062		0.0563		0.0727	0.0569	0.0706	0.0604	0.0586	0.0578	0.0621		0.0555	0.0516	0.0684	0.0589	0.0621	
T70N	0.0588		0.0773			0.0624			0.0868	0.079	0.0678	0.062	0.0633		0.0647			0.062
F65H	0.112	0.165				0.0987	0.11	0.0756	0.129	0.0981	0.0747	0.106		0.0994	0.104	0.103		0.0801
F65D	0.0763	0.0856			0.0729				0.102	0.0778	0.0726					0.0548		0.0626
K66G	0.119	0.102	0.139		0.11	0.0561			0.0944	0.0702			0.0903	0.0811	0.0979	0.103		0.0744
Y34R	0.0745		0.111		0.106		0.113				0.0784		0.0895		0.124		0.0764	
Y34V	0.0604		0.0483			0.0698			0.108		0.116	0.0804		0.0708	0.113	0.0711		0.0679
D27N	0.0863	0.131	0.103		0.167		0.11				0.0911		0.072	0.082	0.0793	0.115		
D27M	0.0971	0.0894	0.105			0.0771	0.0841	0.0886		0.103	0.0981	0.0934	0.0954			0.0803		0.0934
T55N	0.0968	0.119				0.0795	0.0974	0.0741	0.0953	0.102	0.103		0.0938	0.0723	0.0968	0.108		0.0793
T55A	0.0878			0.183	0.0948	0.0919	0.0858	0.165	0.12	0.076	0.106		0.104	0.098	0.0864	0.123		
T71Q	0.0969		0.119		0.103	0.0994	0.111		0.148		0.0803				0.111		0.0902	0.0901
T71N	0.0917	0.0974	0.111			0.0396	0.0659		0.0924	0.0915			0.0718	0.0842		0.0854		0.0771
T71R	0.0751	0.145	0.147		0.133		0.112				0.112	0.105		0.1	0.136	0.105		0.0866
N52E	0.0712	0.0853			0.0853		0.105	0.0856	0.0767		0.0741		0.0747	0.0698				
N52A	0.0973	0.111	0.0932		0.126	0.0684	0.0716	0.161	0.097		0.0817		0.0642			0.0905	0.0767	0.0771
N52L	0.0481	0.067	0.0616			0.0643	0.0657	0.102	0.0677	0.0642	0.073	0.0589	0.061	0.0661	0.0614		0.0662	0.104
Q59P	0.0411	0.0495					0.0275				0.0443		0.0108		0.0419			
L61R	0.0844	0.144	0.108			0.117		0.158	0.13	0.103	0.112	0.106	0.0822	0.0747		0.133	0.105	0.0891
L61P	0.0654	0.139	0.135		0.0986	0.0926	0.108	0.142	0.0988	0.0819	0.113	0.118	0.0963	0.106		0.0955		0.0897
T23D	0.166	0.119	0.0898				0.121	0.114	0.103	0.105	0.0955	0.098		0.083	0.131		0.0791	
K68H	0.103	0.0636	0.119	0.0981			0.115	0.116	0.112		0.104			0.113	0.11		0.111	
K68D	0.117	0.145					0.0649	0.146			0.12		0.118			0.123	0.151	0.134
R87C	0.0962	0.129		0.108		0.0899		0.109		0.0934				0.0808	0.097	0.0565	0.0918	0.0931
R87S	0.0734	0.0923	0.086	0.0728	0.0907	0.0873	0.0868	0.0714	0.0859	0.0814	0.0938			0.0523	0.0744	0.0898	0.077	0.0867
E25F	0.0975	0.12	0.128			0.0861			0.107	0.111	0.147	0.106	0.0885	0.0935		0.0989	0.0673	0.114
T30E	0.0896	0.116	0.0935	0.104	0.124	0.0935	0.0676		0.112	0.11	0.0762	0.1	0.106	0.0567	0.108		0.0831	0.0974

From the supplement of paper PMC12217912
